# Some of the results follow.
# Test system: PfAP2-HC AP2 domain (GST-tagged)
# Assay: gcPBM binding intensity (ln(normalized median fluorescence intensity)); higher = stronger DNA binding
# Procedure, shortened: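 GST-tagged P. falciparum DNA-binding domains, expressed in E. coli (about 25 μg on average), were applied for 1 h to an Agilent 4 × 180k array of primer-extended double-stranded 36-bp intergenic genomic probes plus negative controls. The binding buffer was 1× PBS with 1% milk, 0.2 mg/ml BSA, 0.5% salmon testes DNA and 0.03% Triton X-100. Bound protein was detected with Alexa488 anti-GST antibody and scanned at 488 nm. Binding intensity is the highest Masliner-normalised natural-log median intensity across replicate spots of either probe orientation.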
row,Sequence,gcPBM binding intensity (ln)
1,TTTCTTAAAATATAAAGTACTAAAATGAAAATATAT [XGTACX_site2173],9.38
2,AAATAAAGAAATATATGTACATATATATATATATAT [XGTACX_site5131],10.4
3,AAAAAAAAAAAAAACACACACACACGCAGATATATA [CACACA_site6672],10.5
4,TTTATTCTCCACACCCGTACACATTTTTTTTGCATA [XGTACX_site5615],9.93
5,ATTATAGACAACTCTTTTTCTAAACTATTTTATTTT [CACACA_negctrl_site1754],9.98
6,CATAATATTTGTGAAAGTACTTATTTTACAATAGGG [XGTACX_site5004],9.55
7,TTTTCTATAAGATTTGCACACAACTTATTCTATTAA [CACACA_site3752],9.94
8,ATAAATAAATAAATAAATATATATATGAAATAATGT [TGCATGCA_negctrl_site12],9.83
9,CTTCTTTTGTGATAAAGTACAAATATTTTGAAATAT [XGTACX_site1156],9.38
10,AAAAAATATAAAACGAGTACATATATAATAAGCAAA [XGTACX_site1360],9.84
11,ATTTCTTTTACATTTACATGCAATGCTCTATAGATA [TGCATGCA_site62],9.74
12,AAAGAATTTGCATATACACACAAAAAAATAAATACA [CACACA_site4373],10.1
13,ATTTTTTTTATGTATTATGCTTTTATATCCTTCATA [CACACA_negctrl_site1244],9.78
14,AATATAATATAATGCACACATAAAAAAAAAAAAATC [CACACA_site1303],9.98
15,GCTAAACAATAGTTTGCACACAATTTAAATATATAT [CACACA_site193],10
16,AATGCACTATTTAAAAGTACACATAAGAAAAGCATA [XGTACX_site1739],9.62
17,AGTATAAATATATTATGTACATATATATTATACTTA [XGTACX_site2623],9.53
18,TTATATACATTAAATGAACACACATAAATAAATTAC [CACACA_site8927],9.88
19,ATATATATATACATATGTACATATATATTTATACAT [XGTACX_site2463],9.81
20,AATACAATTTATAACACACACACAAGAATACCTATA [CACACA_site6705],11.1
21,TCTTTTTAAGGGATTTTTTTTTTTTTTTTAAAAAGA [CACACA_negctrl_site1274],9
22,TTTGTATCTATATATTGTACGAATTACTTTCATTTA [XGTACX_site4785],9.9
23,TATACATACATTAGACGTACACATTTTACCTACACC [XGTACX_site3586],9.87
24,TTTTTTGTATTTTTCACACACACATAAGTAAACAAT [CACACA_site1900],10.2

# — the supplement of paper PMC11417369
